Source: PubChem BioAssay AID504832 (National Center for Advancing Translational Sciences (NCATS), 2011)
In all, about 310,000 compounds went through this assay and about 18,000 (5.8%) were called active. Inconclusive results, whose numbers are uncertain, are shown with a selection of clear calls. The call rests on the fitted dose curve; in most records, active means well fitted inhibition curve with a large enough effect; inconclusive means small, poorly fitted or top-dose-only effect, or another doubt; inactive means no such curve, though single readings can be large or run the other way. No potency is given beside an inconclusive call; the fits are too rough.

Experiment: Primary qHTS for delayed death inhibitors of the malarial parasite plastid, 48 hour incubation
Details: P. falciparum luciferase growth in erythrocytes; series mostly up to 28.7 µM
Method in brief: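 Compounds are pin-transferred into medium, infected erythrocytes (2% hematocrit, 0.1% parasitemia final) are added, and plates sit one parasite generation at 37 C in 5% CO2. Detection reagent is then added and luminescence measured.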
Potency means the concentration at half of the fitted maximal effect; tags describe the fitted curve by direction and shape.

SMILES | Potency
CCCCN1C(=O)C(O)(CC(=O)c2ccco2)c2cc(Br)ccc21 (centres undefined) | inactive
CCOC(=O)C1CCCN(C2CC(=O)N(c3ccc(N4C(=O)CC(N5CCCC(C(=O)OCC)C5)C4=O)cc3)C2=O)C1 (centres undefined) | inactive
CCOc1ccc(/C=N/NC(=O)C(OC)c2ccccc2)cc1 (centres undefined) | inconclusive [inhibitor, full curve, poor fit]
CC1=C(C(=O)Nc2ccccc2C(=O)NC2CCCCC2C)SCCO1 (centres undefined) | inconclusive [inhibitor, single point]
Cc1ccccc1C(=O)c1c[nH]c(C(=O)NCCc2ccccn2)c1 | active: 11.7 µM
O=C(NCCCN1CCCC1)c1ccc2c(c1)N(Cc1ccccc1F)C(=O)c1ccccc1S2=O (centres undefined) | inconclusive [inhibitor, partial curve, poor fit]
NC(=O)C1CCN(C(=O)c2cn(-c3ccccc3)nc2-c2cccnc2)CC1 | inactive
CCOC(=O)c1c(C)n(C)c2ccc(OC)c(NC(=O)CN3CCC(C(=O)OCC)CC3)c12 | inconclusive [inhibitor, partial curve, poor fit]
CCOC(=O)N1CCC(N2C(=O)c3ccccc3C2Nc2ccc(S(=O)(=O)N3CCCCC3)cc2)CC1 (centres undefined) | inconclusive [inhibitor, partial curve, poor fit]
Cc1ccc(C)c(NC(=O)c2ccc(OCc3c(C)noc3C)cc2)c1 | inconclusive [inhibitor, single point]
COc1ccc(OC)c(S(=O)(=O)N2CCC(C(=O)NCc3ccccc3OC)CC2)c1 | inconclusive [inhibitor, single point]
O=C(CSc1nnnn1-c1cccc(Cl)c1)Nc1ccc2c(c1)CCC2 | inactive
COc1ccc(O[C@H]2C=C[C@@H](c3ccccc3)O[C@@H]2COC(=O)CC/C(C)=N/O[C@H](C)c2cn([C@@H]3COC[C@H]3O)nn2)cc1 | active: 14.7 µM
CCn1c(CSc2nc3ccccc3s2)nc2ccccc21 | inconclusive [inhibitor, single point]
Cc1ccccc1N(C(=O)Cn1nnc(-c2cccs2)n1)C(C(=O)NCCC(C)C)c1ccco1 (centres undefined) | inconclusive [inhibitor, single point]
COc1cc(CCC(=O)Nc2cc(C)cc(C)c2)cc(OC)c1OC | inconclusive [inhibitor, partial curve]
Cn1c(=O)c2c(nc(Br)n2CCSc2nc3ccccc3o2)n(C)c1=O | inconclusive [inhibitor, single point]
CC(C)c1ccc(OCc2ccc(C(=O)O)o2)cc1 | active: 1.04 µM
C/C(=N\NC(=O)c1ccccc1O)c1cccc(NC(=O)c2ccccc2)c1 | inconclusive [inhibitor, single point]
CCCCCn1nc(C)c(/C=N\NC(=O)c2cc(C)oc2C)c1C | active: 13.1 µM
COCCNC(=O)CN(C(=O)CCC(=O)Nc1ccccn1)c1ccc(C)cc1 | inactive
CCOc1ccc(NC(=O)CN(C)C(=O)c2cccc3ccccc23)cc1OCC | inconclusive [inhibitor, partial curve, poor fit]
Cc1ccc2nc(-c3cccc(S(=O)(=O)N(C)C)c3)cn2c1 | inactive

SMILES | Potency
Fc1ccccc1COc1ccc(Br)cc1CNCC1CCCO1 (centres undefined) | inconclusive [inhibitor, single point]
COC(=O)C1C(O)=C(C=Nc2ccc(N)cc2)C(=O)CC1(C)C (centres undefined) | inconclusive [inhibitor, partial curve]
O=C(NCc1ccccc1)C(c1cccnc1)N(C(=O)c1ccccn1)c1cccc(F)c1 (centres undefined) | inactive
COc1cccc(-c2nnn(CCC(=O)O)n2)c1 | inactive
COc1cccc(/C=N/NC(=O)CN(CCc2ccccc2)S(=O)(=O)c2ccc(NC(C)=O)cc2)c1 | inconclusive [inhibitor, partial curve]
CCOC(=O)[C@@H]1[C@H]2COc3cc(OC)ccc3[C@@H]2N2C(=O)N(c3ccc(Br)cc3)C(=O)[C@@]12C | inconclusive [inhibitor, partial curve, poor fit]
O=C(CN1CCCCC1CO)c1ccc(OC(F)F)cc1 (centres undefined) | inactive
Cc1ccc(C(=O)NCCc2ccc(S(N)(=O)=O)cc2)cc1[N+](=O)[O-] | inactive
O=C(CCCOc1ccccc1)Nc1ccc2c(c1)OCCO2 | inactive
COC(=O)C1=C(C)N(Cc2cccnc2)C(=O)/C1=C\c1sccc1C | inconclusive [inhibitor, single point]
O=C(Nc1ccc(Cl)cc1)NC1CCCCC1Cc1ccco1 (centres undefined) | inconclusive [inhibitor, single point]
CN(C)CCCCCN(C)Cc1cc2ccccc2o1 | active: 4.65 µM
Cc1ccc(CNS(=O)(=O)c2ccc(CN3C(=O)c4cccnc4C3=O)cc2)o1 | inactive
N=c1sccn1CC(=O)Nc1ccc(SC(F)F)cc1 | inconclusive [inhibitor, single point]
COc1ccc(CCNC(=O)C(=O)NCC2OCCN2C(=O)c2ccc(Cl)cc2)cc1 (centres undefined) | inconclusive [inhibitor, partial curve]
CCC1=C(OC(=O)N(CC)CC)N2C(=O)OC(=NCCc3c[nH]c4ccccc34)[C@]2(C)[C@H]2C1=CC[C@H]1C(=O)N(CC(=O)OC)C(=O)[C@H]12 | active: 9.28 µM
CC(=O)Nc1ccc(/C(C)=N/NC(=O)c2ccc(CN3CCOCC3)cc2)cc1 | inconclusive [inhibitor, partial curve, poor fit]
CCCNC(=O)CN(Cc1ccccc1F)S(=O)(=O)c1ccc(C)cc1 | inconclusive [inhibitor, partial curve, poor fit]
OC(CNCc1ccccc1)Cn1ccc2ccccc21 (centres undefined) | active: 9.28 µM
Cc1cccc(N(CC(=O)NC2CCCCC2)C(=O)c2csnn2)c1 | inactive
O=C(CSc1nnc2c(Cl)cc(C(F)(F)F)cn12)NCc1ccc(F)cc1 | inconclusive [inhibitor, single point]
COc1ccc(OC)c(CN2CCCC(C(=O)c3sccc3C)C2)c1 (centres undefined) | inconclusive [inhibitor, single point]
Oc1ccccc1C1CCCCC1c1ccccc1 (centres undefined) | active: 7.38 µM

SMILES | Potency
O=C(COC(=O)/C=C/c1ccc(C(F)(F)F)cc1)NCCC1=CCCCC1 | inactive
COC(=O)C1=C(c2ccc(F)cc2F)C[C@@H]2CC[C@H]1N2C(=O)N1CCCC1 | inconclusive [inhibitor, partial curve, poor fit]
CCOC(=O)c1c(C)n(C)c2cc(CN(C)C)c(O)c(S(=O)(=O)c3ccccc3)c12 | inactive
CCOC(=O)COc1c(Cl)cc(C2NC(=S)NC(c3ccccc3)=C2C(C)=O)cc1OCC (centres undefined) | inconclusive [inhibitor, partial curve, poor fit]
CCOc1ccc(NC(=O)CC2S/C(=N/N=C3CCCCCC3)NC2=O)cc1 (centres undefined) | inconclusive [inhibitor, partial curve, poor fit]
COc1ccccc1NC(=O)c1ccc2c(c1)OCO2 | inactive
COc1ccc(-n2cc(CNC3CCC(O)CC3)c(-c3cccc(F)c3)n2)cc1 (centres undefined) | inconclusive [inhibitor, partial curve, poor fit]
C/C(=N\NC(=S)NCc1ccccc1)c1ccc2c(c1)OCCO2 | inactive
CN(C)c1nc(N(C)C)nc(N(C#N)CCCl)n1 | inconclusive [inhibitor, partial curve, poor fit]
O=C(CN1CCCCC1)Nc1cc(Cl)ccc1Oc1ccccc1 | inconclusive [inhibitor, partial curve, poor fit]
N#C/C(=C\c1cc2c(cc1Br)OCO2)C(=O)NCC1CCCO1 (centres undefined) | inactive
CCCn1c(=O)c(C(=O)NCc2ccncc2)c(O)c2ccccc21 | inactive
Cc1c(NC(=O)c2cccc(-c3cc4ccccc4oc3=O)c2)cccc1-c1nc2ncccc2o1 | inconclusive [inhibitor, single point]
CN1CCC(OC(=O)C2c3ccccc3Oc3ccccc32)CC1 | inconclusive [inhibitor, single point]
Cc1cc2cc(CNC(=O)c3ccco3)ccc2n1C | inconclusive [inhibitor, single point]
CS(=O)(=O)N(CC(=O)NCc1ccncc1)c1cc(Cl)ccc1Cl | inactive
CCS(=O)(=O)Nc1cccc(C2=NN(S(=O)(=O)CC)C(c3cccs3)C2)c1 (centres undefined) | inconclusive [inhibitor, single point]
C=C1CCC[C@]2(C)C[C@H]3OC(=O)C(CNCCN(CC)CC)[C@H]3CC12 (some centres undefined) | inconclusive [inhibitor, single point]
Cc1onc(-c2ccccc2)c1C(=O)N/N=C/c1c[nH]c2ccccc12 | inactive
Cc1ccc(NC(=O)CSc2nnc(-c3ccncc3)n2C)cc1S(=O)(=O)N1CCOCC1 | inconclusive [inhibitor, partial curve, poor fit]
CCC1CCCN1Cn1cnc2c([nH]c3ccc(Cl)cc32)c1=O (centres undefined) | inconclusive [inhibitor, single point]
C=CCn1c(CCSCc2ccccc2)n[nH]c1=S | inconclusive [inhibitor, single point]
Cc1nn(CC#N)c(=O)n1-c1ccc(C(C)C)cc1 | inconclusive [inhibitor, single point]
